# Source: ChEMBL document CHEMBL4888484, “Replenishing the malaria drug discovery pipeline: Screening and hit evaluation of the MMV Hit Generation Library 1 (HGL1) against asexual blood stage Plasmodium falciparum ,using a nano luciferase reporter read-out” (2022)
# Hit rate of the full screen: of about 150,000 compounds, about 540 (0.36%) showed an effect of 50% or more. This is one part of the list.
# System: Plasmodium falciparum
# Experiment: Primary screen in NF54 nanoGlo assay, in single point, at 2uM, 72h; a lower Z score goes with more inhibition
# Format: functional, Erythrocyte
# Details: timepoint 72 hour
SMILES,% Inhibition [%],Z score
Cc1ccc(-c2cc(C(=O)Nc3ncccn3)c3ccccc3n2)cc1C,-8,0.99
COc1ccccc1NC(=O)C1CCCCC1C(=O)NCCc1ccccc1 (centres undefined),35,-3.99
Cc1nn(-c2nc3ccccc3[nH]2)c(O)c1CCC(C)C,95,-12.21
COCC(=O)N(Cc1cccc(C)c1)c1ccc(CC(=O)NC(C)C)cc1,-2,0.32
CCOCC1CCN(c2ncnc3c2Cc2ccccc2OC3)CC1,-12,1.27
Cc1cccc(OC(F)F)c1NC(=O)N1CC[C@H](Oc2cccc(Cl)c2)C1,-5,0.52
CC(C)[C@@H](O)CNCc1cn(C2CCCC2)nc1-c1ccccn1,-1,0.06
COc1cccc(NC(=O)c2cccc(N3CCCN(Cc4ccccc4)C3=O)c2)c1,3,-0.52
Cc1cc(C(=O)Nc2ccc3c(c2)N(C)C(=O)[C@H](C)O3)ccc1N1CCOCC1,4,-0.7
N#CCCn1ncc2c(N3CCN(c4ccccn4)CC3)ncnc21,-3,0.45
O=C(CCn1ccccc1=O)N1CCc2[nH]cnc2C1,-4,0.71
Cc1cccc(NC(=O)Cc2noc(-c3scnc3C)n2)c1C,-13,1.99
CC(C)CC(=O)N(C)[C@H]1CCS(=O)(=O)C1,-37,4.31
CN(Cc1cscn1)C(=O)N[C@H]1CCCc2ccccc21,-1,0.24
CC1CN(CCN2CCCCC2c2nccs2)CCO1 (centres undefined),-13,1.33
CC(C)Cc1n[nH]c(NC(=O)c2ccc(Nc3ncccn3)cc2)n1,-14,1.57
Cn1c(CNC(=O)[C@H]2CCCCC2(C)C)cc(=O)n1-c1ccccc1,-18,2.01
C[C@@H](CNC(=O)c1ccn2cncc2c1)Nc1ccccc1,13,-1.15
CCN1C(=O)Cc2cc(NC(=O)c3cccc4ccccc34)ccc21,6,-0.63
CCC(=O)N(C)[C@@H](Cc1cccc(C(F)(F)F)c1)C1CCN(Cc2ccc(C(=O)OC)cc2)CC1,-3,0.34
O=C(N[C@H]1CCS(=O)(=O)C1)c1cc(-c2ccccc2)on1,-6,0.92
O=C(CCN(Cc1ccccc1)c1nc(-c2cccc(Br)c2)nc2ccccc12)N1CCOCC1,-1,0.27

SMILES,% Inhibition [%],Z score
Cc1noc(C)c1CN(C)Cc1nnc(-c2ccc(Cl)cc2)o1,2,-0.24
CC[C@H](C)Cc1nc(CCn2nc(C)cc2C)n(CCO)n1,-13,1.3
CCC1(C)CCCN(CC2CCCCNC2=O)C1 (centres undefined),-5,0.91
CC(C)(C)NC(=O)c1ccc(Cl)c(Cl)c1,-9,1.27
Cc1ccc(NC(=O)CN2C[C@@H]3C[C@H](C2)[C@H]2CCCC(=O)N2C3)cc1,1,-0.11
Cc1noc(C)c1CN(C)C(=O)[C@H](C)OCC1CC1,-5,0.59
CCc1n[nH]c(NC(=O)CCc2c(C)noc2C)n1,16,-1.89
COCc1nc(C)cc(N2CCN(c3ccc(N)nc3)CC2)n1,-12,1.79
O=C(Nc1nc2c(s1)CN(C(=O)COc1ccccc1)CC2)c1cccs1,-3,0.63
Cc1cc(CNC(=O)C2CC2c2ccc3c(c2)OCCO3)no1 (centres undefined),-8,0.91
O=C1c2ccccc2C(=O)N1C1CN(C2CCOCC2)C1,3,-0.32
c1ccc(C2=NO[C@@H](CN3CCC4(CCCC4)C3)C2)cc1,-4,0.67
CN=C(NCCCc1ccccc1)NCCCn1cncn1,-9,0.78
Cc1nn(C)c2nc(N3CCCC[C@@H]3CN3CCCC3)sc12,-6,0.54
CO[C@H]1CN(C(C)C)C[C@@H]1Nc1ccncc1F,-1,0.18
CCOC(=O)c1cnn2ccc(NC(=O)c3cccc(C(F)(F)F)c3)cc12,1,-0.15
CCn1nc(C(=O)Nc2cccc3ccccc23)ccc1=O,6,-0.83
CC(=O)c1cc(C(=O)NCc2cccnc2N2CCN(C)CC2)[nH]n1,-4,0.41
CC1CC(C(=O)N2CCCC2c2ncccn2)CC(C)(C)C1 (centres undefined),-13,1.54
O=c1n(Cc2ccccc2)nc2n1CC1CCC(C2)N1S(=O)(=O)c1ccc(F)cc1 (centres undefined),-6,0.77
COc1cccnc1N(C)C(=O)CCCC1CCOCC1,-9,1.72
Cc1cc(C)n(-c2cncc(N3CCCN(C)CC3)n2)n1,4,-0.74

SMILES,% Inhibition [%],Z score
O=C(CCc1ccsc1)Nc1ccc2c(c1)CCN2,-1,0.17
O=C1C[C@H](c2cccnc2)c2cnn(C3CCCC3)c2N1,38,-1.45
CCNc1cc(CNC(=O)N2CCO[C@@H](Cn3cccn3)C2)ccn1,-1,0.14
O=C(NCc1ccncc1)c1nnc(Cc2cccc(F)c2)o1,-4,0.84
O=S(=O)(CC1CCC1)NCc1ccno1,-14,2.75
O=C(Cn1cnc2ccccc21)Nc1c(F)cccc1F,-4,0.36
O=C(O)[C@@H]1CC2(CCN(C(=O)CCCCc3ccccc3)CC2)CN1,-10,1.84
CCn1cc(-c2noc(CNC(=O)c3ccc(S(=O)(=O)N4CCOCC4)cc3)n2)cn1,-18,2.26
Cn1c([C@H]2CCN(Cc3ccccc3)C2)nc2ccccc21,-10,1.55
CC[C@@H](CNS(N)(=O)=O)Oc1cccc(F)c1,-8,0.84
O=C(NCC1CN(C(=O)Nc2ccccc2)C2CCN1C2)c1cccc(OC(F)F)c1 (centres undefined),5,-0.68
O=C1NCC(C(=O)N[C@@]23CCC[C@@H]2C3)c2ccccc21 (some centres undefined),2,-0.25
OC1CC(C2CCCCC2)N(C[C@H](O)c2ccc(Cl)cc2)C1 (some centres undefined),14,-1.64
N#Cc1ccc(S(=O)(=O)N2CCCOCCNC(=O)[C@@H]3CCC[C@@H]32)cc1,3,-0.49
CN(Cc1ccncc1)Cc1csnn1,1,-0.07
Cc1nnc([C@@H]2CCCN2Cc2cccs2)[nH]1,-9,1.08
CC1(C)COCCN1C(=O)c1ccc(Cl)c(S(=O)(=O)N2CCCCCC2)c1,-13,2.46
O=S1(=O)CC[C@H](Nc2nc(-c3ccccc3)no2)C1,-5,0.92
Cc1nccc(NC(=O)Cc2c(C)noc2C)c1Cl,26,-2.93
Cc1noc2ncnc(NCCc3cnn(-c4ccccc4)c3)c12,-20,1.88
COc1ccc(F)cc1CN1CC[C@]2(O)CCN(C(=O)C3CCCC3)C[C@@H]2C1,-12,1.63
CC1=C[C@@H](CNc2ccccn2)[C@H](C(C)C)C[C@H]1Cc1nnc(-c2cncn2C)o1,-10,1.53

SMILES,% Inhibition [%],Z score
CCN(CC)C(=O)[C@H](C)N1CCc2ncc(C(F)(F)F)cc2C1,5,-0.94
CC1CCN(C[C@H]2CCCN(C(=O)c3cccc(F)c3)CC2)CC1,1,-0.2
Nc1nc(CCNC(=O)c2ccc(Cl)s2)cs1,-20,3.39
CCOc1ccc(NC(=O)CCn2ccc(=O)[nH]c2=O)cc1,-9,1.05
CC1CC(C(N)=O)c2ccccc2N1Cc1nc2ccccc2o1 (centres undefined),-1,0.13
O=C(NC(c1ccc(F)cc1)C1CCCC1)C1CCCN(C(=O)c2ccoc2)C1 (centres undefined),-6,0.77
COc1ccc([C@H]2C(=O)N(CCc3ccccc3)CC(=O)N2C2CCCCC2)cc1,2,-0.25
Cc1ccnc(NC(=O)CCC2CCCCC2)n1,-7,1.03
CN(Cc1nc([C@H]2CCOC2)no1)c1ccccc1,8,-1.14
NC(=O)CCn1ccc(Nc2nccc(C(F)(F)F)n2)n1,-8,0.77
COC(=O)CS(=O)(=O)N1CC(S(=O)(=O)CC(C)C)C1,-7,1.11
COc1ccc(F)c(CN2CCC[C@@]3(CCN(C(=O)c4c[nH]nc4C)C3)C2=O)c1,-15,1.99
Fc1cnc(NCCCn2ccnc2)nc1,-4,0.46
Cc1cc(C)c(CN[C@@H](C)CCC(C)C)c(C)c1CO,7,-1.08
CC(C)c1ncsc1C(=O)N[C@H](C)c1ccc(Cl)cn1,-4,0.51
CCOCc1cc(CN2CC[C@H](N3CCN(C)CC3)[C@@H](O)C2)ccc1OC,-3,0.65
CC(=O)N(CCN1CCCCC1)[C@H]1CCCN(C(=O)c2ncoc2-c2cccc(C)c2)C1,-15,2
c1nc(CN2CCc3nc(CC4CC4)nc(NC4CC4)c3CC2)c[nH]1,-17,1.69
Cc1cnccc1N1CCCO[C@@H](CF)C1,-18,2.21
O=C1CCC(=O)N1C1CC2CCC(C1)N2C(=O)CC(c1ccccc1)c1ccccc1 (centres undefined),-12,1.35
COCCCN(C)C(=O)Nc1ccc(C)cn1,-7,0.64
